# According to a collection of fitness landscapes (doi:10.1016/j.celrep.2020.107928):
# Over roughly 81,000 sequences, “one-hybrid fitness for binding parS DNA” has its median near -0.17; the highest 2% begin near 0.51. The list shows a part of the results.
# B1: Caulobacter ParB omega fusion; a variant is named by its letters at X, in order, B8GW30 (parent)
# chain: MESVVVGEPGMSEGRRGLGRGLSALLGEVDAAPAQAPGEQLGGSREAPIEILQRNPDQPRRTFREEDLEDLSNSIREKGVLQPILVRPSPDTAGEYQIVAGERAWRAAQRAGLKTVPIMVRELDDLAVLEIGIIENVQRADLNVLEEALSYKVLMEKFERTQENIAQTIGKSXSHVANXMRLLXLPDEVQSYLVSGELTAXHARAIAAAADPVALAKQIIEGGLSVRETEALARKAPNLSAGKSKGGRPPRVKDTDTQALESDLSSVLGLDVSIDHRGSTGTLTITYATLEQLDDLCNRLTRGI
# Variants of: B1
# Experiment: one-hybrid fitness for binding parS DNA (scaled: cognate 1, non-cognate 0); higher = stronger binding
# Conditions: with parS DNA site
# Procedure, shortened: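 Values were rescaled so that cognate is 1 and non-cognate is 0. Each is a fitness, the log change in a variant's read ratio to wild type from Illumina reads of plasmids before and after selection, with three replicate libraries pooled and variants under 10 reads dropped. Selection of the Caulobacter ParB libraries, four specificity codons randomised, used E. coli USO with a HIS3 reporter, site 19 bp from the promoter, on M9-minus-histidine with 0.1 mM IPTG and 5 mM 3-AT for 48 hours at 37°C.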
row,Variant,one-hybrid fitness for binding parS DNA
1,RVYY,0.495
2,QTFI,≤ 0.2
3,MDSK,≤ 0.2
4,RNIM,≤ 0.2
5,SAHE,≤ 0.2
6,LYSL,≤ 0.2
7,LPAC,≤ 0.2
8,ELGG,≤ 0.2
9,HYCS,≤ 0.2
10,EPHG,≤ 0.2
11,VMTC,≤ 0.2
12,QQGA,≤ 0.2
13,LYPK,≤ 0.2
14,AAEI,≤ 0.2
15,PVTY,≤ 0.2
16,LVDT,≤ 0.2
17,PGLC,≤ 0.2
18,NECV,≤ 0.2
19,RNWI,≤ 0.2
20,TRMT,≤ 0.2
21,HGTC,≤ 0.2

row,Variant,one-hybrid fitness for binding parS DNA
1,RQLI,≤ 0.2
2,HGNC,≤ 0.2
3,ASFQ,≤ 0.2
4,QMQV,≤ 0.2
5,AFQM,≤ 0.2
6,HKSL,≤ 0.2
7,QGTE,≤ 0.2
8,NWQS,≤ 0.2
9,TTDR,≤ 0.2
10,RICN,0.447
11,NINA,≤ 0.2
12,RMVN,0.422
13,VTQS,≤ 0.2
14,VALP,≤ 0.2
15,PPCT,≤ 0.2
16,QVYF,≤ 0.2
17,KRGS,≤ 0.2
18,CNTM,≤ 0.2
19,RTQF,0.213
20,VYKR,≤ 0.2
21,MPGT,≤ 0.2

row,Variant,one-hybrid fitness for binding parS DNA
1,STTN,≤ 0.2
2,RSWW,≤ 0.2
3,YMAC,≤ 0.2
4,KEEG,≤ 0.2
5,QHID,≤ 0.2
6,IMYS,≤ 0.2
7,SRLW,≤ 0.2
8,HTNN,≤ 0.2
9,ACKT,≤ 0.2
10,ITCL,≤ 0.2
11,APKA,≤ 0.2
12,QAAQ,≤ 0.2
13,GSYR,≤ 0.2
14,TRKL,≤ 0.2
15,NPHR,≤ 0.2
16,NMRL,≤ 0.2
17,RKPQ,≤ 0.2
18,VIKC,≤ 0.2
19,LWDG,≤ 0.2
20,DQLF,≤ 0.2
21,CITL,≤ 0.2

row,Variant,one-hybrid fitness for binding parS DNA
1,QMLW,≤ 0.2
2,DCPC,≤ 0.2
3,RYAL,≤ 0.2
4,ARRR,≤ 0.2
5,QTPD,≤ 0.2
6,RMFW,0.274
7,MVRA,≤ 0.2
8,CHMG,≤ 0.2
9,LRKI,≤ 0.2
10,RRAW,≤ 0.2
11,DYVS,≤ 0.2
12,KGGT,≤ 0.2
13,LASG,≤ 0.2
14,GTLS,≤ 0.2
15,YRTN,≤ 0.2
16,TRPQ,≤ 0.2
17,KNPR,≤ 0.2
18,QQII,≤ 0.2
19,QKAH,≤ 0.2
20,RRRV,≤ 0.2
21,RTDF,≤ 0.2
